{"source": "PubChem BioAssay AID588342", "about": "(National Center for Advancing Translational Sciences (NCATS), 2011)", "note": "In all, about 360,000 compounds went through this assay and about 25,000 (6.9%) were called active. This list was built around the results that the source calls inconclusive (neither active nor inactive); the mix of calls is not that of the screen. Calls follow the shape of the dose curve; as a rule, active = well fitted inhibition curve with a large enough effect; inconclusive = small, poorly fitted or top-dose-only effect; inactive = flat fitted curve, though single readings scatter. Potencies beside an inconclusive call are fits to weak or partial responses and may not hold up. Potency is read from the fitted curve at half-maximal effect; tags tell the direction and shape of the fitted curve.", "data": [{"biological_target": "Luciferin 4-monooxygenase (Photinus pyralis) (UniProt P08659)", "sequence (P08659 whole entry, looked up)": "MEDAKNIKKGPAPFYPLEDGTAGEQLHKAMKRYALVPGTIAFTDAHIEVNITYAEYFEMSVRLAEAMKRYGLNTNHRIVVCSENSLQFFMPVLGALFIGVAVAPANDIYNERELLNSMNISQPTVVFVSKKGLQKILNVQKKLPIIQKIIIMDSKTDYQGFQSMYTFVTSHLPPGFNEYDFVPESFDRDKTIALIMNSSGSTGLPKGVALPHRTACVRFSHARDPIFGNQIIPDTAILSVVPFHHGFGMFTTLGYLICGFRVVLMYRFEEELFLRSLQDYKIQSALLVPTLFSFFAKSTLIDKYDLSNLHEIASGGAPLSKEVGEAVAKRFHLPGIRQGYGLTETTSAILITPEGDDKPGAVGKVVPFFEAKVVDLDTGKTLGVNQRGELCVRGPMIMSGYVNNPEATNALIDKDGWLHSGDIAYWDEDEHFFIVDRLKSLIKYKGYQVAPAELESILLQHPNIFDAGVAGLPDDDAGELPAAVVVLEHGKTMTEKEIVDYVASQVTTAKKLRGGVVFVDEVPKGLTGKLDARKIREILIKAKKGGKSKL", "assay": "qHTS profiling assay for firefly luciferase inhibitor/activator using purifed enzyme and Km concentrations of substrates (counterscreen for miR-21 project); also: nearly all actives have a fitted effect of over 55% in size;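 as to activity change, negative = inhibition: plate controls were vehicle for no effect and reference inhibitor for full effect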", "details": "purified FLuc, luminescence inhibition; activity change, negative = inhibition: at 57.5 µM (top of the series)", "method_in_brief": "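Purified P. pyralis luciferase, 10 nM final, with Km-level 10 uM D-luciferin and 10 uM ATP in 50 mM Tris acetate pH 7.5, 10 mM Mg acetate, 0.01% Tween-20, 0.05% BSA; 6-point qHTS titration about 60 µM downward; luminescence read.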", "values": [{"smiles": "CC1(C)Cc2c(cnn2-c2ccc(F)cc2)C(NC(=O)CCC(F)(F)F)C1", "note": "(configuration not stated)", "activity change, negative = inhibition": "inactive: 6.83%"}, {"smiles": "Cc1cc(C)c2c(n1)SCC(=O)N2CC(=O)Nc1cc(F)ccc1F", "activity change, negative = inhibition": "inactive: 3.34%"}, {"smiles": "COc1cc(OC)cc(C(=O)Nc2ccc(N3CCN(C(=O)c4cccs4)CC3)cc2)c1", "activity change, negative = inhibition": "inactive: 3.17%"}, {"smiles": "O=C(COc1ccccc1Cl)NC(=O)NC1CCCC1", "Potency": "active: 13.5 µM"}, {"smiles": "Cc1cc(OCc2ccc(C(=O)NN=C3CCCC3)cc2)ccc1Cl", "Potency": "inconclusive: 26.9 µM [inhibitor, partial curve]"}, {"smiles": "COCCOC(=O)c1c(C)oc2c1cc(NS(=O)(=O)c1ccc(Cl)c(C)c1)c1ccccc12", "Potency": "inconclusive: 12 µM [inhibitor, partial curve, poor fit]"}, {"smiles": "Cc1ccc(NC(=O)Cn2c(C)csc2=O)cc1", "Potency": "inconclusive: 30.1 µM [inhibitor, partial curve, poor fit]"}, {"smiles": "C=CCn1c(SCC(=O)Nc2ccc(Cl)cn2)nnc1C1CC1", "Potency": "inconclusive: 23.9 µM [inhibitor, single point]"}, {"smiles": "CCOC(=O)CN1C=C(c2ccc3ccccc3n2)C(C[N+](=O)[O-])c2ccccc21", "note": "(configuration not stated)", "Potency": "inconclusive: 23.9 µM [inhibitor, partial curve]"}, {"smiles": "Brc1cccc(CNCc2cccs2)c1", "Potency": "inconclusive: 33.8 µM [inhibitor, partial curve, poor fit]"}, {"smiles": "COC(=O)c1c(NC(=O)CCCOc2ccc(C(C)(C)C)cc2)sc2c1C(C(=O)OC)CC2", "note": "(configuration not stated)", "Potency": "inconclusive: 8.49 µM [inhibitor, partial curve]"}, {"smiles": "O=C(NC1CCCCC1)C(c1cccnc1)N(C(=O)c1csnn1)c1ccccc1", "note": "(configuration not stated)", "activity change, negative = inhibition": "inactive: 0.58%"}, {"smiles": "CCn1c(SCC#N)nc2c(c1=O)C1(CCCC1)Cc1ccccc1-2", "activity change, negative = inhibition": "inactive: 4.62%"}, {"smiles": "NS(=O)(=O)c1ccc(NC(=O)COC(=O)COc2cccc(C(F)(F)F)c2)cc1", "Potency": "active: 13.5 µM"}, {"smiles": "Cc1nn(-c2ccccc2)c(Cl)c1C(=O)N(C)c1nc(-c2ccc(F)cc2)cs1", "activity change, negative = inhibition": "inactive: 8.51%"}, {"smiles": "Nc1ccccc1Nc1nc2ccccc2[nH]1", "Potency": "inconclusive: 26.9 µM [inhibitor, partial curve, poor fit]"}, {"smiles": "Cc1cc(=O)oc2cc(O)c(N=Nc3ccccc3)cc12", "Potency": "inconclusive: 2.69 µM [inhibitor, full curve]"}, {"smiles": "Cc1ccc(OCC(=O)NNC(=O)Cc2ccc(S(=O)(=O)N3CCOCC3)s2)cc1", "activity change, negative = inhibition": "inactive: -1.84%"}, {"smiles": "COCc1[nH]nc2c1C(c1cc(OC)c(O)c(OC)c1)C(C#N)=C(N)O2", "note": "(configuration not stated)", "activity change, negative = inhibition": "inactive: -4.77%"}, {"smiles": "Cn1c(SCC(=O)c2ccccc2)nnc1-c1cnccn1", "Potency": "inconclusive: 13.5 µM [inhibitor, partial curve, poor fit]"}, {"smiles": "COc1ccc(NS(=O)(=O)c2cccc(C(=O)NNC(=O)c3ccccc3OC)c2)cc1", "Potency": "inconclusive: 30.1 µM [inhibitor, partial curve, poor fit]"}, {"smiles": "Cc1cc(C)cc(NC(=S)/N=C(\\N)Nc2nc(C)c3ccccc3n2)c1", "activity change, negative = inhibition": "inactive: -2.27%"}, {"smiles": "Cc1nc2c(-c3ccc(F)cc3)cnn2c2c1CCC2", "Potency": "inconclusive: 4.78 µM [inhibitor, full curve]"}, {"smiles": "Nc1cc(-c2cccc(Br)c2)nn1Cc1ccccc1", "Potency": "inconclusive: 23.9 µM [inhibitor, single point]"}, {"smiles": "CN(/C=C/C(=C\\C=[N+](C)c1ccccc1)OCCCS(=O)(=O)[O-])c1ccccc1", "Potency": "inconclusive: 21.3 µM [inhibitor, single point]"}, {"smiles": "COCCNC(=O)Nc1cc(C(=O)NCc2ccc(C(C)C)cc2)ccc1N1CCCC1", "activity change, negative = inhibition": "inactive: -15.3%"}, {"smiles": "CCOC(=O)C1CCN(C(c2ccc(SC)cc2)c2c(O)cc(C)n(Cc3ccco3)c2=O)CC1", "note": "(configuration not stated)", "activity change, negative = inhibition": "inactive: -19%"}, {"smiles": "Cc1ccc(/C=C2\\Oc3c(ccc(O)c3CN3CCN(C)CC3)C2=O)cc1", "Potency": "inconclusive: 37.9 µM [inhibitor, partial curve, poor fit]"}, {"smiles": "Cc1ccc(COCCN2CCN(S(=O)(=O)c3ccc(C)cc3)CCC2=O)cc1", "Potency": "inconclusive: 23.9 µM [inhibitor, partial curve, poor fit]"}, {"smiles": "NS(=O)(=O)c1cccc(NC(=O)COc2ccc([N+](=O)[O-])cc2)c1", "Potency": "inconclusive: 26.9 µM [inhibitor, partial curve, poor fit]"}, {"smiles": "O=C(Nc1cccn(Cc2ccc(F)cc2)c1=O)NC1CCCCC1", "Potency": "inconclusive: 26.9 µM [inhibitor, single point]"}, {"smiles": "CCc1cc(Br)ccc1NC(=S)NCCc1ccccc1", "activity change, negative = inhibition": "inactive: 1.95%"}, {"smiles": "O=C(Nc1nnc(C2CCCO2)s1)c1cccs1", "note": "(configuration not stated)", "Potency": "inconclusive: 12 µM [inhibitor, partial curve]"}, {"smiles": "O=C(CCS(=O)(=O)c1cccs1)NC1CCCCCC1", "Potency": "active: 16.9 µM"}, {"smiles": "c1ccc(-c2cn3c(n2)-c2ccccc2C3)cc1", "Potency": "active: 0.426 µM"}, {"smiles": "CCOC(=O)c1sc(NC(=S)NC(=O)C23CC4CC(CC(C4)C2)C3)cc1C", "Potency": "inconclusive: 2.69 µM [inhibitor, full curve]"}, {"smiles": "COc1ccc(C(=O)NCCn2cc(SCC(=O)Nc3ccc(C)cc3)c3ccccc32)cc1", "Potency": "inconclusive: 30.1 µM [inhibitor, single point]"}, {"smiles": "Cc1ccc(CNC(=O)NCc2noc3ccc(C)cc23)cc1", "Potency": "inconclusive: 9.53 µM [inhibitor, partial curve, poor fit]"}, {"smiles": "CC(=O)Nc1nc(-c2ccc3c(c2)CC(C)N3C(=O)C2CC2)c(C)s1", "note": "(configuration not stated)", "Potency": "inconclusive: 21.3 µM [inhibitor, single point]"}, {"smiles": "Cc1cccc(NC(=O)Cc2ccc(Br)cc2)n1", "Potency": "inconclusive: 23.9 µM [inhibitor, single point]"}, {"smiles": "COc1ccccc1OCCCSc1nc(-c2ccc(C(C)(C)C)cc2)nc2cc(=O)[nH]n12", "Potency": "inconclusive: 23.9 µM [inhibitor, partial curve]"}, {"smiles": "COc1ccc(CNC(=O)c2cccc(NC(=O)c3ccccc3)c2)cc1", "Potency": "inconclusive: 26.9 µM [inhibitor, single point]"}, {"smiles": "CCC(=O)Nc1ccc(OC)cc1OC", "activity change, negative = inhibition": "inactive: 0.198%"}, {"smiles": "COc1ccc(/C=C/C(=O)NCc2ccccn2)cc1", "Potency": "inconclusive: 37.9 µM [inhibitor, single point]"}, {"smiles": "Cn1c(=O)c2c(nc(Br)n2CC(=O)C23CC4CC(CC(C4)C2)C3)n(C)c1=O", "activity change, negative = inhibition": "inactive: 4.38%"}, {"smiles": "O=c1oc2ccc(F)cc2c2c1C1O[C@](c3ccsc3)(Cc3c1ccc1ccccc31)O2", "Potency": "inconclusive: 7.77 µM [inhibitor, partial curve, poor fit]"}, {"smiles": "CC(C)(Oc1ccc(CCNC(=O)c2ccc(Cl)cc2)cc1)C(=O)O", "Potency": "inconclusive: 37.9 µM [inhibitor, partial curve, poor fit]"}, {"smiles": "CN1CCc2c(sc3c2C(=O)NC(c2ccc(OC(=O)c4ccccc4)cc2)N3)C1", "note": "(configuration not stated)", "Potency": "inconclusive: 16.9 µM [inhibitor, partial curve]"}, {"smiles": "Brc1ccc(C2=NC(Cc3ccccc3)CO2)cc1", "note": "(configuration not stated)", "Potency": "active: 6.75 µM"}, {"smiles": "COC(=O)/C(=C\\C(=O)c1ccccc1)Nc1ccc(OC)cc1", "Potency": "inconclusive: 23.9 µM [inhibitor, single point]"}, {"smiles": "Cc1ccc(-c2cn3nc(N4CCCC(C(=O)Nc5ccc(F)cc5)C4)sc3n2)cc1", "note": "(configuration not stated)", "Potency": "active: 12 µM"}, {"smiles": "COc1ccc2nc(N3C(=O)/C(=C/c4ccccc4)NC3=S)sc2c1", "Potency": "active: 10.7 µM"}, {"smiles": "CCCN(CCC)C(=O)Cn1c(=O)n(-c2cccc(OC)c2)c(=O)c2c(C)c(C(=O)N(C)C)sc21", "activity change, negative = inhibition": "inactive: 1.92%"}, {"smiles": "O=C(CSc1nnc(SCc2ccc(Cl)cc2)s1)N1CCN(C(=O)c2ccco2)CC1", "Potency": "active: 9.53 µM"}, {"smiles": "N/C(=N\\OC(=O)COc1ccc2ccccc2c1)c1ccncc1", "Potency": "inconclusive: 37.9 µM [inhibitor, partial curve, poor fit]"}, {"smiles": "CCCc1cc(C(=O)Nc2cccc(C(C)=O)c2)no1", "Potency": "inconclusive: 6.75 µM [inhibitor, partial curve]"}, {"smiles": "Nc1nc(N)c2[nH]c(-c3ccccc3)nc2n1", "Potency": "inconclusive: 21.3 µM [inhibitor, partial curve, poor fit]"}, {"smiles": "Cc1ccc2c(c1)C(=O)OC(C(=O)Nc1ncc(Cc3ccc(C(C)C)cc3)s1)C2", "note": "(configuration not stated)", "activity change, negative = inhibition": "inactive: 2.55%"}, {"smiles": "CCc1ccc(/C=N/N2CCN(c3ccccn3)CC2)cc1", "Potency": "inconclusive: 8.49 µM [inhibitor, partial curve]"}, {"smiles": "CCN(C(=O)CCS(=O)(=O)c1cc2[nH]c(=O)c(=O)[nH]c2cc1C)c1ccccc1", "activity change, negative = inhibition": "inactive: -6.57%"}, {"smiles": "C/C(=N\\Nc1ccccc1C)c1cccnc1", "Potency": "active: 16.9 µM"}, {"smiles": "COc1ccc(C(=O)Oc2ccc(C(C)=O)cc2)c(OC)c1", "Potency": "active: 12 µM"}, {"smiles": "O=C(c1cccc(F)c1)N1CCc2ccccc21", "activity change, negative = inhibition": "inactive: 1.69%"}, {"smiles": "O=C(Cn1nnc(-c2cccs2)n1)NCc1cccs1", "activity change, negative = inhibition": "inactive: -4.3%"}, {"smiles": "CCc1cc(=O)oc2cc(OCC=C(C)C)ccc12", "Potency": "inconclusive: 23.9 µM [inhibitor, partial curve, poor fit]"}, {"smiles": "O=C(O)C(=O)/C(=C\\c1ccc([N+](=O)[O-])cc1)c1ccc2ccccc2n1", "Potency": "inconclusive: 26.9 µM [inhibitor, single point]"}, {"smiles": "CSc1ccccc1NC(=O)Nc1ccc(Cl)cc1", "Potency": "active: 10.7 µM"}, {"smiles": "COc1ccc(-c2cn3nc(N4CCCC(C(=O)Nc5cc(C)ccc5C)C4)sc3n2)cc1", "note": "(configuration not stated)", "Potency": "inconclusive: 15.1 µM [inhibitor, partial curve, poor fit]"}, {"smiles": "Cc1ccc(C=Nc2ccccc2C(N)=O)o1", "Potency": "active: 26.9 µM"}, {"smiles": "Fc1ccc(-n2ncc3c(NCCCn4ccnc4)ncnc32)cc1", "Potency": "inconclusive: 26.9 µM [inhibitor, partial curve]"}, {"smiles": "CCOC(=O)C1(Cc2cccc(Cl)c2)CCCN(C(=O)c2cnn(CC)c2)C1", "note": "(configuration not stated)", "Potency": "inconclusive: 30.1 µM [inhibitor, partial curve, poor fit]"}, {"smiles": "CCn1c(C)nc2cc(C(=O)N=Nc3c(O)[nH]c4c(C)cc(C)cc34)ccc21", "activity change, negative = inhibition": "inactive: -1.18%"}]}]}
